# ± gives the standard deviation of the averaged measurements. Whole data set: some 4,100 sequences, median “relative kcat/Km (krel) vs genomic leader AAAGAU” near 1.7, cut for the highest 2% near 6.5. The list shows a part of the results, in another mix than the full data.
# Target: T1, E. coli RNase P holoenzyme (M1 P RNA + rnpA protein) (UniProt P0A7Y8)
# T1 sequence: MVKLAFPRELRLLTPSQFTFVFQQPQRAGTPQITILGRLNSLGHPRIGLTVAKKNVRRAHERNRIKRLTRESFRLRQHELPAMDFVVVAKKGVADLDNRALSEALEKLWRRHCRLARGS
# Assay: relative kcat/Km (krel) vs genomic leader AAAGAU (relative (reference leader = 1)); higher = faster RNase P cleavage
# Experimental: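 HTS-Kin: a pool of ptRNA-Met (21C construct) with all 4096 combinations of 5' leader nucleotides N(-6) to N(-1) was processed in vitro by E. coli RNase P (P RNA + rnpA/C5 protein) under multiple-turnover conditions at 37 C, pH 8, 17.5 mM MgCl2. Residual substrate was Illumina-sequenced at several fractions reacted, and relative kcat/Km (krel) was computed by internal competition kinetics, calibrated to the genomic leader (AAAGAU = 1). The listed hexamer is the varied N(-6)..N(-1) leader (DNA letters), and it sits between a fixed 5' stem-loop flank (GCAUGCACGAAAGUGCGUGCUAUGAA) and the mature tRNA-Met starting GGCUACGUAGCUCAGUUGG. Two technical replicates are averaged.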
# [1] = fraction of substrate reacted: ~9-10% (9.79% repeat 1, 9.1% repeat 2)
# [2] = fraction of substrate reacted: ~13-16% (15.68% repeat 1, 13.17% repeat 2)
# [3] = fraction of substrate reacted: ~26-29% (28.66% repeat 1, 26.4% repeat 2)
Sequence,relative kcat/Km [1],relative kcat/Km [2],relative kcat/Km [3]
GTCTAA,4.58 ± 0.43,7.55 ± 1.7,10.1 ± 4.8
CAAGAT,1.15 ± 0.24,0.704 ± 0.019,1.49 ± 0.33
AGGATT,–,1.16 ± 0.83,1.39 ± 0.82
CACTCA,3.49 ± 1.5,3.54 ± 0.36,5.18 ± 2
ATGACT,1.54 ± 0.21,0.697 ± 0.028,1.64 ± 0.5
TGCCCG,0.408 ± 0.37,–,1 ± 0.59
TAACGC,3.03 ± 2.1,3 ± 0.12,3.59 ± 1.3
TGGAAG,–,–,0.432 ± 0.24
TTATCA,1.75 ± 0.34,2.22 ± 0.65,3.13 ± 1.6
ATAGAG,–,0.485 ± 0.15,1.73 ± 0.23
GTCGCC,4.34 ± 1.4,5.5 ± 0.42,–
CGGTTC,–,0.808 ± 0.75,0.718 ± 0.41
TTTGCA,1.98 ± 1.2,1.94 ± 0.097,2.52 ± 0.96
TCAGCA,1.49 ± 0.19,1.51 ± 0.79,2.22 ± 0.69
TAAATG,–,0.29 ± 0.26,1.54 ± 0.35
GTTCTT,2.61 ± 1.8,2.49 ± 0.24,3.4 ± 1.2
CTCGGC,–,–,1.23 ± 1.2
CCTTTA,1.51 ± 0.63,1.47 ± 0.27,2.25 ± 0.99
GGAAAA,1.64 ± 0.95,2.17 ± 0.57,2.77 ± 0.66
ACATCC,2.97 ± 1.8,3.72 ± 0.33,4.37 ± 1.2
TCAGGT,–,–,2.53 ± 2.4
GGATGA,1.55 ± 1.2,2.3 ± 1.3,3.71 ± 1.9

Sequence,relative kcat/Km [1],relative kcat/Km [2],relative kcat/Km [3]
AAGAGG,0.842 ± 0.047,0.536 ± 0.26,1.0512 ± 0.001
CCTGAT,0.672 ± 0.52,–,1.55 ± 1
GTTCTA,1.83 ± 0.032,1.71 ± 0.31,2.36 ± 0.68
GTATCC,2.97 ± 1.6,3.3 ± 0.46,3.72 ± 1.4
GTACCT,1.69 ± 0.45,2.76 ± 0.68,2.94 ± 1.6
CCGAAG,–,1.05 ± 0.22,1.44 ± 0.68
TTTCGT,–,–,2.16 ± 1.8
TAGGGT,–,–,1.75 ± 0.45
AACTTA,2.69 ± 1.8,2.8 ± 0.12,3.83 ± 1.2
ACATGC,1.8 ± 0.56,2.63 ± 0.62,3.57 ± 1.8
GGTTTT,1.18 ± 0.64,1.22 ± 0.76,1.8 ± 0.68
ATTCCA,2.17 ± 0.89,2.11 ± 0.63,1.93 ± 0.82
TTTTGG,0.508 ± 0.012,–,0.844 ± 0.31
TATGAA,2.69 ± 0.86,3.24 ± 0.39,4.07 ± 1.6
TCAGGA,–,1.1 ± 1.1,1.19 ± 0.54
CAGTTA,2.56 ± 0.33,2.7 ± 0.51,3.56 ± 1.1
CTCTAT,4.59 ± 0.51,6.38 ± 1.7,–
GCCAAA,2.15 ± 0.18,2.72 ± 0.12,4.25 ± 0.74
GCCCAG,0.499 ± 0.44,0.933 ± 0.79,3 ± 0.76
TAGAAA,1.9 ± 0.38,3.05 ± 1.1,4.51 ± 2
GCTGAA,1.33 ± 0.8,0.99 ± 0.99,1.35 ± 0.59
CGTGTA,0.848 ± 0.08,1.11 ± 0.36,1.02 ± 0.16

Sequence,relative kcat/Km [1],relative kcat/Km [2],relative kcat/Km [3]
CGCTGC,3.06 ± 0.66,2.86 ± 0.66,3.86 ± 1.2
GGCAGC,1.55 ± 1.2,1.84 ± 0.44,3.11 ± 0.042
ATACCA,0.754 ± 0.4,1.03 ± 0.38,1.46 ± 0.93
GGCTTG,–,–,0.827 ± 0.34
CCTCTT,2.21 ± 0.49,1.79 ± 0.48,2.21 ± 0.57
GGACCC,1.64 ± 0.42,1.16 ± 0.014,1.33 ± 0.096
GACAAA,4.01 ± 1.6,4.49 ± 0.5,6.91 ± 2.5
ATACTC,1.56 ± 1.5,1.51 ± 0.52,1.59 ± 0.2
GAGATA,1.56 ± 0.45,1.57 ± 0.58,1.89 ± 0.58
TTCAGT,–,2.35 ± 1.7,3.37 ± 2.9
AAACTA,1.54 ± 1.2,1.15 ± 0.42,1.33 ± 0.14
CCCATG,–,0.298 ± 0.011,1.43 ± 0.93
CTTCAA,3.2 ± 2.3,3.11 ± 0.12,3.96 ± 1.1
AGACCC,2.19 ± 0.19,1.61 ± 1.1,2.21 ± 1.2
CCGAGC,2.29 ± 0.63,1.29 ± 0.24,1.79 ± 0.18
ATTCAC,3.25 ± 1.4,4.01 ± 0.31,5.85 ± 2.2
GGATCT,1.18 ± 0.79,1.69 ± 0.9,2.17 ± 0.58
CTTAGC,2.96 ± 1.3,3.29 ± 1.3,3.62 ± 0.95
GAGTAA,2.22 ± 0.88,2.9 ± 0.51,3.73 ± 1.1
AAAACA,1.07 ± 0.96,0.739 ± 0.38,1.09 ± 0.23
GATTGT,0.637 ± 0.52,1.08 ± 1,–
